{"source": "PubChem BioAssay AID652104", "about": "(National Center for Advancing Translational Sciences (NCATS), 2013)", "note": "About 7,200 (1.8%) of roughly 410,000 compounds were called active. The inconclusive results got no clear call from the source; some entries with a clear call stand among them for comparison. The call rests on the fitted dose curve; in most records, active means well fitted activation curve with a large enough effect; inconclusive means small, poorly fitted or top-dose-only effect, or another doubt; inactive means no such curve, though single readings can be large or run the other way. Potencies of inconclusive entries are left out as doubtful fits. Potency means the concentration at half of the fitted maximal effect; tags describe the fitted curve by direction and shape."}
{"assay": "qHTS of TDP-43 Inhibitors; further: nearly all actives have a fitted effect of over 50% in size", "details": "TDP-43 expressing yeast growth rescue, BacTiter-Glo, 24 h; series mostly up to 46.1 µM", "procedure,_shortened": "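Yeast expressing TDP-43 (pregrown in raffinose, seeded at OD600=0.02 in galactose medium) exposed to compounds 24 hr at 30 deg C. Growth read by BacTiter-Glo luminescence; rescue of toxicity appears as increased signal.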"}
{"smiles": "Cc1cccc(NC(=S)Nc2ccc(Oc3ccccc3)cc2)n1", "Potency": "inconclusive [activator, partial curve]"}
{"smiles": "O=C(O)c1ccc(-c2ccc(O)c(F)c2)cc1", "Potency": "active: 15.8 µM"}
{"smiles": "S=c1[nH]nc(Cc2ccc(Br)cc2)n1/N=C/c1ccc(Cl)cc1", "Potency": "active: 8.91 µM"}
{"smiles": "COc1ccc(/C=N/N2CCOCC2)cc1COc1ccc(Cl)cc1", "Potency": "active: 15.8 µM"}
{"smiles": "CN1C(=O)CSC1=Nc1cccc(Cl)c1", "Potency": "inconclusive [activator, single point]"}
{"smiles": "CSc1ccc(CCNC(=O)c2c(C)oc3ncn(C)c(=O)c23)cc1", "Potency": "inactive"}
{"smiles": "Cc1cccc(Cn2c(Cc3ccccc3)nc3ccccc32)c1", "Potency": "inconclusive [activator, partial curve, poor fit]"}
{"smiles": "CCC(=O)Nc1cccc(-c2nc3cc(C)ccc3o2)c1", "Potency": "active: 14.1 µM"}
{"smiles": "COC(=O)c1c(CSc2ccc(Cl)cc2)noc1C(=O)NCc1ccco1", "Potency": "inconclusive [activator, single point]"}
{"smiles": "COc1ccc(Cl)cc1S(=O)(=O)N1CCN(c2ccc(F)cc2)CC1", "Potency": "inconclusive [activator, partial curve]"}
{"smiles": "CCOC(=O)c1ccc(NC(=O)CCc2nc3cccnc3n2Cc2cccs2)cc1", "Potency": "inactive"}
{"smiles": "O=C1C=C(c2cc3ccccc3s2)C[C@@H](c2ccc(Cl)cc2)C1", "Potency": "inactive"}
{"smiles": "Cc1cc(NC(=O)CSc2nc3c(c(-c4cccnc4)c2C#N)CCC3)no1", "Potency": "inactive"}
{"smiles": "CCCCCn1c(CN2CCN(c3cccc(Cl)c3)CC2)nc2c1c(=O)n(C)c(=O)n2C", "Potency": "inconclusive [activator, partial curve]"}
{"smiles": "CC(C)(C)c1ccc(S(=O)(=O)Nc2ccc(Cc3ccncc3)cc2)cc1", "Potency": "inactive"}
{"smiles": "O=C(Nc1ccc(N2CCN(C(=O)c3ccco3)CC2)c(Cl)c1)c1cccs1", "Potency": "inconclusive [activator, full curve]"}
{"smiles": "CCOC(=O)c1c(C)[nH]c(N=Nc2cccc(C)c2)c1C", "Potency": "inconclusive [activator, single point]"}
{"smiles": "CCOC(=O)Cc1c(C)c2c(O)cc(O)cc2oc1=O", "Potency": "inactive"}
{"smiles": "Nc1c(Cl)cc(-c2cn(CCC(=O)O)c(-c3ccc(Cl)nc3)n2)cc1Cl", "Potency": "inconclusive [activator, partial curve]"}
{"smiles": "O=C(c1nnc(-c2ccc(Cl)cc2)o1)C1CCCC1", "Potency": "inconclusive [activator, single point]"}
{"smiles": "Cc1cccc(C)c1NC(=O)CSc1nc(-c2cccs2)cc(C(F)(F)F)n1", "Potency": "inactive"}
{"smiles": "O=c1oc(-c2ccc(O)c(O)c2)cc2cccc(O)c12", "Potency": "inactive"}
{"smiles": "CC1=NNC(=O)C1CC(=O)N/N=C/c1sccc1C", "note": "(centres undefined)", "Potency": "inactive"}
{"smiles": "C=C(Cl)COc1ccc2c(C)cc(=O)oc2c1", "Potency": "inactive"}
{"smiles": "O=C(Cn1c(=O)c2cccn2c2ccc(F)cc21)NCc1cccc(Cl)c1", "Potency": "inactive"}
{"smiles": "CCOC(=O)c1c(NC(=O)C(C)NCc2ccco2)sc2c1CCC(C)C2", "note": "(centres undefined)", "Potency": "inconclusive [activator, single point]"}
{"smiles": "COc1cccc(-c2csc(N3CCN(C(=S)Nc4ccccc4Cl)CC3)n2)c1", "Potency": "inconclusive [activator, single point]"}
{"smiles": "CCc1cccc2c(-c3ccccc3)nc(SCC(=O)Nc3ccc(OC)cc3)nc12", "Potency": "inactive"}
{"smiles": "O=c1c2[nH]c3ccc(Cl)cc3c2ncn1CCN1CCCCC1", "Potency": "inactive"}
{"smiles": "CCCCNc1nc(N(C)c2ccccc2)nc(-n2ccnc2)n1", "Potency": "active: 14.1 µM"}
{"smiles": "CN(C)S(=O)(=O)N1CCC(N2CCN(Cc3ccc(F)cc3)C(=O)C2=O)CC1", "Potency": "inconclusive [activator, partial curve]"}
{"smiles": "CCOc1ccc(CCNC(=O)CSCc2nc(-c3cccc(C)c3)oc2C)cc1OCC", "Potency": "inactive"}
{"smiles": "CCOC(=O)Nc1ccc2c(c1)N(C(=O)CCN1CCOCC1)c1ccccc1S2=O", "note": "(centres undefined)", "Potency": "inactive"}
{"smiles": "O=C(/C=C/c1ccccc1)Nc1ncn[nH]1", "Potency": "inconclusive [activator, single point]"}
{"smiles": "COC(=O)C1=C(C)N(CC2CC2)C(=O)N[C@H]1c1ccc(Br)cc1", "Potency": "inconclusive [activator, partial curve]"}
{"smiles": "COc1ccc(-c2nsc(NC(=O)c3ccccc3Br)n2)cc1", "Potency": "inconclusive [activator, partial curve]"}
{"smiles": "Cc1nc2ccc(NC(=O)COc3cccc(F)c3)cc2s1", "Potency": "active: 20 µM"}
{"smiles": "CCOC(=O)Cn1c(=O)oc2cc(S(=O)(=O)N(C)Cc3ccco3)ccc21", "Potency": "inconclusive [activator, partial curve]"}
{"smiles": "CCc1ccc(-n2c(CCC(=O)O)ccc2-c2cccs2)cc1", "Potency": "inconclusive [activator, single point]"}
{"smiles": "COc1ccc(-n2ccn(CC(=O)Nc3ccccc3C(F)(F)F)c(=O)c2=O)cc1OC", "Potency": "inactive"}
{"smiles": "COc1ccc2oc(=O)c(C(=O)OCc3ccccc3)cc2c1", "Potency": "inconclusive [activator, partial curve]"}
{"smiles": "CC(=O)N1CCc2c(sc3c2c(=O)n(CCc2ccccc2)c(=O)n3Cc2ccc(F)cc2)C1", "Potency": "active: 15.8 µM"}
{"smiles": "CCN(CC)C(=O)CSc1nnc(-c2cc(-c3ccc(Cl)cc3)nc3ccccc23)o1", "Potency": "inactive"}
{"smiles": "COc1ccc(CCn2c(-c3ccncc3)n[nH]c2=S)cc1OC", "Potency": "inconclusive [activator, full curve, poor fit]"}
{"smiles": "O=C(Nc1nc(-c2ccc(F)c(F)c2)cs1)C1=COCCO1", "Potency": "active: 3.98 µM"}
{"smiles": "CC1=NN(C(N)=S)C(=O)C1N=Nc1ccccc1Cl", "note": "(centres undefined)", "Potency": "inconclusive [activator, partial curve]"}
{"smiles": "Cc1ccc(NC(=O)c2c(C)nn(-c3ccccc3)c2Cl)cc1", "Potency": "active: 12.6 µM"}
{"smiles": "Cc1cc(C)cc(NC(=S)Nc2cccc3ccccc23)c1", "Potency": "inconclusive [activator, single point]"}
{"smiles": "c1ccc(CCSc2ncnc3nc[nH]c23)cc1", "Potency": "inconclusive [activator, single point]"}
{"smiles": "CN(C)c1ccc(C(CNC(=O)c2ccc(C(C)(C)C)cc2)N2CCCC2)cc1", "note": "(centres undefined)", "Potency": "inactive"}
{"smiles": "O=C(COC(=O)c1cccc(Cl)c1Cl)NCc1cccs1", "Potency": "active: 12.6 µM"}
{"smiles": "CCOC(=O)CNC(=O)C1CCCc2c1[nH]c1ccc(Cl)cc21", "note": "(centres undefined)", "Potency": "active: 12.6 µM"}
{"smiles": "Cc1cccc(NC(=O)C2CCCN2S(=O)(=O)c2cccc3nsnc23)c1C", "note": "(centres undefined)", "Potency": "inconclusive [activator, full curve]"}
{"smiles": "COc1ccc(C2C(C(C)=O)=C(C)N=c3s/c(=C\\c4ccco4)c(=O)n32)c(OC)c1", "note": "(centres undefined)", "Potency": "inconclusive [activator, single point]"}
{"smiles": "CC(=O)c1ccc(NC(=O)CSc2nnc3ccc(-c4ccc(F)cc4)nn23)cc1", "Potency": "inconclusive [activator, partial curve, poor fit]"}
{"smiles": "CSC[C@H]1CN(CCc2ccccc2)C(=O)[C@@H]1CC(=O)Nc1ccc(Br)cc1", "Potency": "inconclusive [activator, full curve]"}
{"smiles": "O=C(c1cccc(Cl)c1Cl)N1CCN(c2ccccn2)CC1", "Potency": "inconclusive [activator, single point]"}
{"smiles": "Cc1cccc(CSc2nnc(-c3cnccn3)n2C)c1", "Potency": "inconclusive [activator, partial curve]"}
{"smiles": "O=C(NC1CC1)c1ccc2c(c1)C1C3CCC(C3)C1C(c1ccccc1)N2", "note": "(centres undefined)", "Potency": "inconclusive [activator, single point]"}
{"smiles": "COc1cccc(C(C)(O)c2nc(-c3cccc(C(C)C)c3)cs2)c1", "note": "(centres undefined)", "Potency": "active: 17.8 µM"}
{"smiles": "Cc1cccc(C)c1NC(=O)CCSc1nc(-c2ccc3c(c2)OCO3)cc(C(F)(F)F)n1", "Potency": "inactive"}
{"smiles": "Fc1ccccc1C(NCCc1ccc(Cl)cc1)c1nnc(-c2ccccc2)o1", "note": "(centres undefined)", "Potency": "inconclusive [activator, partial curve]"}
{"smiles": "O=C(NCCNc1ccc([N+](=O)[O-])cc1)c1ccccc1Br", "Potency": "inconclusive [activator, single point]"}
{"smiles": "CCOc1cc(N2CCOCC2)c(OCC)cc1NC(=O)c1c(-c2ccccc2)noc1C", "Potency": "inconclusive [activator, single point]"}
{"smiles": "COc1cccc(N2CCN(C(=O)c3ccc(CS(=O)c4ccccc4Cl)o3)CC2)c1", "note": "(centres undefined)", "Potency": "inconclusive [activator, single point]"}
{"smiles": "O=C(O)c1ccc(N2C(=O)CSC2=S)cc1", "Potency": "inconclusive [activator, single point]"}
{"smiles": "O=C(CCCc1ccccc1)NCc1ccc(F)cc1", "Potency": "inconclusive [activator, single point]"}
{"smiles": "CCCCC(=O)NC(Nc1cc(C)ccn1)(C(=O)OCC)C(F)(F)F", "note": "(centres undefined)", "Potency": "inactive"}
{"smiles": "CC1(O)c2ccccc2C(=O)N1CCc1ccccc1F", "note": "(centres undefined)", "Potency": "inconclusive [activator, partial curve]"}
{"smiles": "Cc1ccc(Cl)cc1NC(=O)c1sc2nc(C)c(C)c(C)c2c1N", "Potency": "inconclusive [activator, partial curve]"}
{"smiles": "O=C(c1ccc(Br)cc1)c1cc([N+](=O)[O-])ccc1N1CCOCC1", "Potency": "inconclusive [activator, partial curve]"}
{"smiles": "OCc1cccc(-c2csc(C(O)c3ccccc3)n2)c1", "note": "(centres undefined)", "Potency": "inconclusive [activator, partial curve]"}
{"smiles": "O=C(Cn1ncc2c1-c1ccccc1OC2)Nc1cccc(Cl)c1", "Potency": "inconclusive [activator, full curve]"}
{"smiles": "CCOC(=O)c1ccc(NC(=O)CCc2nc(-c3cccc(C)c3)no2)cc1", "Potency": "inconclusive [activator, partial curve]"}
